Test results: PubChem BioAssay AID1345082 (National Center for Advancing Translational Sciences (NCATS), 2018)
Screen size: about 94,000 compounds; about 4,000 (4.3%) were called active. The inconclusive results got no clear call from the source; some entries with a clear call stand among them for comparison. Calls come from the whole dose curve; as a rule, active = well fitted inhibition curve with a large enough effect; inconclusive = small, poorly fitted or top-dose-only effect; inactive = no such curve, though single readings can be large or run the other way. Potencies of inconclusive entries are doubtful fits and often do not repeat.

Assay: Cytotoxic Profiling in NIH 3T3 Cell Line of Diverse Libraries Using Quantitative High-Throughput Screening; note: nearly all actives have a fitted effect of over 55% in size
Settings: NIH 3T3 viability, CellTiter-Glo ATP luminescence, 48-72 h; series mostly up to 96.7 µM
Procedure, shortened: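 NIH 3T3 cells at 400 cells/well received 23 nL of compound by pintool and were incubated 48 or 72 h at 37 °C. Viability was read as ATP-coupled CellTiter-Glo luminescence.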
Potency is the fitted concentration of half-maximal effect; tags give direction and shape of the fitted curve.

SMILES	Potency
COC(=O)C1=C(C)N=C2SC=C(CC(=O)N3CCCCC3)N2C1c1ccc(Cl)cc1 (stereo not given)	inactive
CN1CCN(Cc2nc(C3(O)CCN(CC4CCCCC4)CC3)cs2)CC1	inconclusive: 56.2 µM [inhibitor, partial curve, poor fit]
COc1ccc2c(c1)C(COCc1cccc(C(=O)O)c1)=CC(C)(C)CO2	inconclusive: 70.8 µM [inhibitor, single point]
CCC(CC)NC(=O)C1Cn2cccc2C(=O)N1Cc1cccnc1 (stereo not given)	inactive
CN(C)c1cccc(-c2cnc(Nc3ccncc3)c3c2CCO3)c1	active: 50.1 µM
Cc1cc(Cl)ccc1-c1ccc(CNC2CN(C(=O)OC(C)(C)C)C2)cc1	inconclusive: 44.7 µM [inhibitor, partial curve, poor fit]
CCCN1CC(Oc2ccc(-c3noc(-c4cccnc4)n3)cc2)C1	inconclusive: 50.1 µM [inhibitor, partial curve, poor fit]
CCC(=O)N1Cc2ccccc2CC2(CCCN(C)C2)C1 (stereo not given)	inconclusive: 89.1 µM [inhibitor, partial curve]
CCc1nc2c(c(-c3ccc(O)cc3)n1)CCN(Cc1cccc(C(F)(F)F)c1)CC2	active: 39.8 µM
CCCn1cc(S(=O)(=O)N2C[C@H](C3CC3)[C@@H](N)C2)cn1	inactive
CC1CCCN(c2ncnc3c2CN(C2CCNCC2)C(=O)CN3C)C1 (stereo not given)	inactive
COc1cc(OC)cc(C(=O)Nc2ccc3c(c2)CN(Cc2ccc4c(c2)OCO4)C(=O)C(C)O3)c1 (stereo not given)	inconclusive: 12.6 µM [inhibitor, full curve]
CCc1cccc2c(C(CC(=O)NCC(C)C)c3cccc(OC)c3)c[nH]c12 (stereo not given)	inconclusive: 70.8 µM [inhibitor, single point]
CCc1noc(-c2cn(C3CCN(C(=O)c4cc(Cl)ccc4F)CC3)nn2)n1	inconclusive: 50.1 µM [inhibitor, partial curve, poor fit]
O=C(C1CC1)N(C1CCOCC1)C1CCN(S(=O)(=O)C2CC2)CC1	inconclusive: 70.8 µM [inhibitor, single point]
COCCOCc1nc(C2CCN(C(=O)Nc3ccccc3F)CC2)no1	inactive
COc1ccccc1-n1c(=O)c(C(=O)N2CCN(C(=O)NC3CCCC3)CC2)nc2cccnc21	inactive
CCC(CC)C(=O)N1CC(C(=O)NCCc2ccncc2)C2(CCOCC2)C1 (stereo not given)	inactive
COCc1nc(C2CC(NC(=O)C(=O)c3ccco3)C2)cc(=O)[nH]1 (stereo not given)	inactive
Cc1nnc2ccc(N3CCC(NC(=O)Nc4ccccc4F)C3)nn12 (stereo not given)	inconclusive: 35.5 µM [inhibitor, partial curve]
O=C(NC1CCN(c2nc3ncccc3o2)CC1)c1ccc(C(F)(F)F)cc1	inconclusive: 56.2 µM [inhibitor, partial curve, poor fit]
O=c1n(-c2ccc(Cl)cc2)nc2n1CCN(Cc1ccc(F)cc1)C2	active: 28.2 µM
O=C1CCSc2ccc(S(=O)(=O)N[C@H]3C[C@@H]4OCC[C@H]34)cc2N1	inactive
COc1ccc(-c2cc(N3CCC(NC(=O)c4ccc(C)c(F)c4)CC3)n[nH]2)cc1	inconclusive: 44.7 µM [inhibitor, partial curve, poor fit]

SMILES	Potency
O=C(NC1CCCCC1)C1CCc2sc(C(=O)N3CCCCC3)cc2C1 (stereo not given)	inconclusive: 44.7 µM [inhibitor, partial curve, poor fit]
CC(NC(=O)c1ccc(-c2nnc3ccc(NC(=O)C4CCC4)cn23)cc1)c1cccs1 (stereo not given)	inconclusive: 50.1 µM [inhibitor, partial curve, poor fit]
CCC(C)Cc1nccc(C2(c3ccccc3Cl)CCNCC2)n1 (stereo not given)	active: 28.2 µM
COc1cccc2ccc(-c3nccn3CC3(CO)CCOCC3)nc12	inactive
O=C(NCCCc1ccccc1)c1n[nH]c2c1CN(C(=O)c1cc(F)ccc1F)CC2	inconclusive: 44.7 µM [inhibitor, partial curve, poor fit]
CCCN1C(=O)Cc2ccccc2C1C(=O)NCc1ccc(F)cc1Cl (stereo not given)	inactive
O=C(c1ccc(C(F)(F)F)cc1)N1CCN(c2ccc3nnc(C4CC4)n3n2)CC1	inconclusive: 50.1 µM [inhibitor, partial curve, poor fit]
COc1ccc(-c2ncc3c(n2)OCCN(C)C3=O)cc1OC	inconclusive: 112 µM [inhibitor, single point]
O=C(c1ccc(Cl)cc1)N1CCC(N2CC3CCCN3C2=O)CC1 (stereo not given)	inactive
C#CCNC(=O)C1CCCN1Cc1ccc(-c2cccc(OC)c2)cc1 (stereo not given)	inconclusive: 50.1 µM [inhibitor, partial curve, poor fit]
Cc1cccc(-c2cccc(CN3CCC(NC(=O)c4cccc(Cl)c4)CC3)c2)c1	active: 20 µM
O=C(CC[C@H]1NC(=O)c2ccccc2NC1=O)NCCn1cnc2ccccc21	inactive
COc1ccc2c(c1)c(CN1CCC3(CC1)CC(O)CCO3)cn2C (stereo not given)	inactive
COc1ccc(CN2CCCCCNC(=O)CC2c2ccccc2)cc1Cn1ccnc1 (stereo not given)	active: 39.8 µM
Cc1ccc2c(n1)N(C)[C@H](CO)CCN(C(=O)Nc1ccccc1)C2	inactive
O=C(NC1CCCC1)N1CC(Oc2ccc(-c3nc(-c4ccccc4)no3)cc2)C1	inactive
O=C(C1CCCCC1)N1CC(N(Cc2ccccn2)C(=O)Nc2ccccc2)C1	inactive
CCOc1ccccc1NC(=O)N1CC(N(CC)C2CCOCC2)C1	inactive
COc1ccc(-c2[nH]nc3ncc(C(=O)N4CCN(Cc5ccccc5)CC4)nc23)c(C)c1	inconclusive: 39.8 µM [inhibitor, partial curve, poor fit]
COc1ccc(-c2nc(C)nc3c2CN(C(C)=O)CC3)cc1	inactive
COc1ccc(C(=O)N[C@@H]2CCC[C@@H]2C(=O)N2CCN(C(=O)c3ccco3)CC2)cn1	inactive
O=c1cc(N2CCOCC2)oc2c(-c3ccccc3O)nccc12	inconclusive: 79.4 µM [inhibitor, partial curve]
COc1ccccc1Nc1ccnc(N2CCC(C(=O)NCc3ccc(C(F)(F)F)cc3)CC2)n1	inconclusive: 22.4 µM [inhibitor, full curve, poor fit]
CCOc1ccc(NC(=O)Cn2c(N3CCc4ccccc4C3)nc(C)cc2=O)cc1	active: 31.6 µM

SMILES	Potency
COc1ccc(CN2Cc3[nH]nc(-c4ccccc4Cl)c3CC2=O)cc1	inconclusive: 56.2 µM [inhibitor, partial curve, poor fit]
COc1ncc(-c2ccnc(-c3nnc(C)n3-c3ccccc3)c2)cn1	inconclusive: 89.1 µM [inhibitor, partial curve]
O=C(C1CCCN1C(=O)Cc1cccc(Cl)c1)N1CCC(N2Cc3cccn3C2=O)CC1 (stereo not given)	inactive
O=C(c1ccccc1)N1Cc2ccccc2CC2(CCCCN2CC2CCNC2)C1 (stereo not given)	inconclusive: 50.1 µM [inhibitor, partial curve, poor fit]
CCN1CCCC12Cc1ccccc1CN([S+](C)(=O)[O-])C2 (stereo not given)	inactive
CC1=NS(=O)(=O)N(Cc2ccccc2)C=C1C(=O)OCc1noc(C2CCCCC2)n1	inconclusive: 5.62 µM [inhibitor, full curve, poor fit]
Cn1ncc2c(C(=O)NC3CCCCC3)cc(-c3ccccc3F)nc21	inactive
COCCCNC(=O)c1cc(-c2ccsc2)nc2c1cnn2C	inconclusive: 112 µM [inhibitor, single point]
CC(C)c1noc(-c2cn(C3CCN(C(=O)c4ccc(F)c(F)c4)CC3)nn2)n1	inconclusive: 17.8 µM [inhibitor, full curve, poor fit]
CSc1ccc(-c2cccc(CN3CCC(NC(=O)c4ccccc4Cl)CC3)c2)cc1	inconclusive: 39.8 µM [inhibitor, partial curve, poor fit]
OCC#Cc1csc(CN2CCCN(C3CCCCC3)CC2)c1	inactive
COCC(=O)N1CCC(c2nn(-c3ccc(Cl)cc3)c(=O)[nH]2)CC1	inactive
COc1ccc(NC(=O)Cn2ccn3nc4c(c3c2=O)CCCCC4)cc1Cl	inactive
O=C(c1cccc(Cl)c1)N1CCc2nc(-c3ccccc3)nc(-c3ccc(Cl)cc3)c2C1	inconclusive: 31.6 µM [inhibitor, partial curve]
CS(=O)(=O)CC(=O)Nc1ccccc1C(=O)NCc1ccccn1	inconclusive: 28.2 µM [inhibitor, partial curve, poor fit]
CC(C)(C)c1nc(C(=O)NCCc2ccc(Cl)cc2)n2ccccc12	inconclusive: 50.1 µM [inhibitor, single point]
COc1ccccc1CNC(=O)[C@@H]1Cc2cn(C)c3cccc(c23)[C@H](CC(C)C)N1	active: 50.1 µM
Cn1cc(C2CCN(C(=O)c3sc(Cl)c(Cl)c3Cl)CC2)c2ccccc21	inconclusive: 44.7 µM [inhibitor, partial curve, poor fit]
c1ccc(-c2csc(CCNc3nccc(-c4ccccn4)n3)n2)cc1	inconclusive: 56.2 µM [inhibitor, partial curve, poor fit]
CN(Cc1cc(C[C@@H]2C[C@H](NS(C)(=O)=O)C2(C)C)no1)c1ccccc1	inconclusive: 89.1 µM [inhibitor, partial curve]
O=C(Cc1ccccc1)N1CCN(c2ccc3nnc(-c4ccccc4)n3n2)CC1	inconclusive: 44.7 µM [inhibitor, partial curve, poor fit]
COc1ccc(-c2cc(C(=O)NCc3ccccc3Cl)c3cnn(C)c3n2)cc1	inconclusive: 44.7 µM [inhibitor, partial curve, poor fit]
